Data taken from patent US7384907B2, “Method of treating infection with ABl tyrosine kinase inhibitors” (Duke University, priority 2002, dated 2008).

Assays:
[1] = tested on: Shigella flexneri 2457T; test: Gentamicin protection assay, Shigella flexneri 2457T uptake into Hela cells; settings: 10 μM, p value=0.0018
[2] = tested on: Shigella flexneri 2457T; test: Gentamicin protection assay, Shigella flexneri 2457T uptake into mouse embryo fibroblasts (Abl/Arg or Null); settings: 10 μM
[3] = tested on: Shigella flexneri ATCC serotype 2a; test: Gentamicin protection assay, Shigella flexneri ATCC serotype 2a uptake into Abl/Arg mouse embryo fibroblasts
[4] = tested on: Crk and cortactin tyrosine phosphorylation; test: Immunoprecipitation and immunoblotting of Crk and cortactin tyrosine phosphorylation in Shigella-infected Hela cells; settings: Hela cells pre-treated with STI571, infected with Shigella flexneri 2457T
[5] = tested on: PLCγ; settings: cited from earlier work
[6] = tested on: Abl; settings: following stimulation of the PDGF receptor; cited from earlier work

SMILES	Reduction in uptake of Shigella flexneri 2457T [1]	Reduction in uptake of Shigella flexneri 2457T ([2]; Abl/Arg cells, p value=0.0243)	Effect on bacterial uptake ([2]; Null cells (lacking Abl and Arg))	Level of Shigella uptake ([3]; Abl/Arg MEFs, 5 μM)	Ability of Abl/Arg cells to be infected with Shigella ([3]; Abl/Arg MEFs, increasing concentrations (0-10 μM) of STI571)	inhibition at 10 µM ([3]; Shigella flexneri, Fibroblast, in Mus musculus, read-out: Inhibition of internalization compared to untreated cells)	Tyrosine phosphorylation of Crk (tyrosine 221) [4]	Effect on signaling pathways induced during Shigella invasion [5]	Effect on catalytic activation of Abl [6]
Cc1ccc(NC(=O)c2ccc(CN3CCN(C)CC3)cc2)cc1Nc1nccc(-c2cccnc2)n1 [STI571]	47%	60%	no significant effect	reduced to that of the Null MEFs	dose-dependent decrease	98%	decrease		
COc1ccc2c(c1)CC[C@@H]1[C@@H]2CC[C@]2(C)[C@@H](NCCCCCCN3C(=O)C=CC3=O)CC[C@@H]12 [U73122]								blocks	blocks
